Test results from PubChem BioAssay AID624417 (National Center for Advancing Translational Sciences (NCATS), 2012).
Out of some 410,000 compounds screened, about 6,400 (1.6%) were called active. The shares of active, inactive and inconclusive entries below differ from those in the screen. The call rests on the fitted dose curve; in most records, active means well fitted inhibition curve with a large enough effect; inconclusive means small, poorly fitted or top-dose-only effect; inactive means no such curve, though single readings can be large or run the other way. No potency is given beside an inconclusive call; the fits are too rough.
Further: nearly all actives have a fitted effect of over 55% in size.
On the % scale 0 is the no-effect control and ±100 the full control effect; potency means the concentration at half of the fitted maximal effect; tags describe the fitted curve by direction and shape.

Each molecule was assayed against Glucagon-like peptide 1 receptor (Homo sapiens) (UniProt P43220) (assay: qHTS of GLP-1 Receptor Inverse Agonists (Inhibition Mode)). Details: HEK293 GLP-1R CRE-luciferase, luminescence, 24 h, GLP-1R form is constitutively active; activity change, negative = inhibition: at 38.3 µM (top of the series) unless noted.
Chain of UniProt P43220 (P43220 whole entry, looked up): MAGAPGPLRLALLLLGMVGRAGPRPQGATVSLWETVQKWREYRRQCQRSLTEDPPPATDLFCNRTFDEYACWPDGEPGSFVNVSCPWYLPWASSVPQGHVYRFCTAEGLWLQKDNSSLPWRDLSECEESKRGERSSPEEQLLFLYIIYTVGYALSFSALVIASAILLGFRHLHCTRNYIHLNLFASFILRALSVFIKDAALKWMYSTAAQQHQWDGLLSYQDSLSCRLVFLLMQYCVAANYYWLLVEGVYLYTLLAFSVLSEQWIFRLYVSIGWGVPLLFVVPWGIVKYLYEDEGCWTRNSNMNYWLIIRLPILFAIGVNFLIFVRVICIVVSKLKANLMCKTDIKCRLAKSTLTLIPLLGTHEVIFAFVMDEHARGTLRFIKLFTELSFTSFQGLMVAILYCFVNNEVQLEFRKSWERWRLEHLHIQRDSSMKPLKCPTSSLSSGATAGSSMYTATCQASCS
Procedure, shortened: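 Constitutively active GLP-1R drives a cAMP-responsive luciferase in stably transfected HEK293 cells; test compounds are added after overnight (12 h) attachment and left 24 hr, and signal loss in luminescence marks inhibition.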
With `OC(c1ccc(Cl)c(Cl)c1)c1ncc(-c2ccc(C(F)(F)F)cc2)[nH]1` (stereo not drawn) the Potency was inconclusive [inhibitor, partial curve, poor fit]. For `CCc1cccc2c(C(=O)CCl)c[nH]c12`, the Potency was “inactive”. `Cc1ccc(O)c(C(=O)c2cc(C#N)c(=O)n(C(C)c3ccccc3)c2)c1` (stereo not drawn) was tested, and the activity change, negative = inhibition was inactive: -0.675% [at 7.66 µM]. For `CC(NC(=O)c1ccc([N+](=O)[O-])o1)C1CC2CCC1C2` (stereo not drawn), the Potency was inconclusive [inhibitor, single point]. For `CCCS(=O)(=O)N1CCCC(C(=O)NCCCN(CC)c2cccc(C)c2)C1` (stereo not drawn), the Potency was inconclusive [inhibitor, partial curve, poor fit]. `Cc1nn(-c2ccc(Cl)cc2)c2[nH]c(=O)c(CNCc3ccc4c(c3)OCO4)cc12` was tested, and the Potency was inconclusive [inhibitor, single point]. In the case of `Cc1c(NC(=O)COC(=O)c2ccccc2Cl)c(=O)n(-c2ccccc2)n1C`, the Potency is reported as “inactive”. For `CC1CCN(C(=O)CSc2c(C(C)C)cnc3c2c(=O)n(C)c(=O)n3C)CC1`, the Potency was inconclusive [inhibitor, single point]. With `Cc1ccc(-n2nc(CO)c(C(=O)NC(C)CCCc3ccccc3)n2)cc1C` (stereo not drawn) the Potency was inconclusive [inhibitor, partial curve]. `CC(C)C[C@H]1CNC(=S)N1C[C@H]1CCCN1C[C@H](CC(C)C)N1C[C@H](Cc2ccc(O)cc2)N(CC2CCCCCC2)C1=S` was tested, and the Potency was inconclusive [inhibitor, partial curve, poor fit]. In the case of `COc1cc(CN(C)Cc2nc3cc(C(F)(F)F)ccc3c(=O)[nH]2)ccc1OC(F)F`, the Potency is reported as inconclusive [inhibitor, single point]. For `O=C(O)c1ccc(N2CC3CC(C2)c2cccc(=O)n2C3)c(NC(=S)Nc2ccc(Br)cc2)c1` (stereo not drawn), the Potency was inconclusive [inhibitor, single point]. For `O=C(NC1CCCCC1)c1cccc(Cn2cc(Cl)cn2)c1`, the Potency was “inactive”. For `CCN(Cc1ccccc1)C(=O)Cn1cc(S(=O)(=O)Cc2cccc(Cl)c2)c2ccccc21`, the Potency was inconclusive [inhibitor, single point]. In the case of `Cc1ccc(OCC(=O)c2cc(C)n(-c3ccccc3)c2C)c([N+](=O)[O-])n1`, the Potency is reported as inconclusive [inhibitor, full curve]. In the case of `Cc1ccc(O)c(NC(=O)c2ccc(Br)c(S(=O)(=O)N3CCCCC3)c2)c1`, the Potency is reported as inconclusive [inhibitor, partial curve, poor fit]. For `Cc1cc(OC(C)C(=O)N(Cc2cccs2)C2CCS(=O)(=O)C2)ccc1Cl` (stereo not drawn), the Potency was inconclusive [inhibitor, partial curve]. In the case of `Cc1ccc(O)c(C(=O)/C=C/c2ccc3c(c2)OCCO3)c1`, the Potency is reported as inconclusive [inhibitor, single point]. In the case of `CC(=O)c1sc2c(c1OC(=O)c1ccc(Cl)cc1)c(=O)n(-c1ccccc1)c(=S)n2-c1ccccc1`, the Potency is reported as “inactive”. In the case of `Cc1ccc(S(=O)(=O)N(CC(=O)N2CCCCC2)c2cccc(C)c2)cc1`, the Potency is reported as inconclusive [inhibitor, partial curve, poor fit]. For `Cc1cccc(CS(=O)(=O)Cc2ccc(C(=O)NC3CCCCCC3)o2)c1`, the Potency was inconclusive [inhibitor, partial curve, poor fit]. In the case of `COc1ccccc1CNc1cc(-c2ccccc2)ccc1OC`, the Potency is reported as inconclusive [inhibitor, partial curve, poor fit]. `CC(C)c1nc2scc(-c3ccc(Cl)cc3)c2c(=O)n1N` was tested, and the Potency was inconclusive [inhibitor, single point]. `S=C(c1nc2ccccc2[nH]1)N1CCOCC1` was tested, and the Potency was inconclusive [inhibitor, single point]. With `O=c1cc(N2CCCCC2)c(-c2ccccc2)nn1Cc1cccc(Cl)c1` the Potency was inconclusive [inhibitor, full curve, poor fit]. In the case of `CCOC(=O)C1CCN(CCCSc2ccc(C)cc2)CC1`, the Potency is reported as inconclusive [inhibitor, single point]. For `Cc1ccc(CN(C(=O)COc2ccc(Cl)c(C)c2)C2CCS(=O)(=O)C2)o1` (stereo not drawn), the Potency was inconclusive [inhibitor, single point]. `Cc1ccc2nc(N3CCN(Cc4ccc(F)cc4)C3=O)c(C)cc2c1` was tested, and the Potency was inconclusive [inhibitor, partial curve, poor fit]. `CCOC(=O)CCn1c2nc(C)cc(C)c2c(=O)n1-c1ccccc1` was tested, and the Potency was “inactive”. With `Cc1cccc(OCCCCn2c(CO)nc3ccccc32)c1` the Potency was inconclusive [inhibitor, single point]. In the case of `COc1ccc(-c2noc(CCC(=O)Nc3ccc4c(c3)OCCO4)n2)cc1`, the Potency is reported as inconclusive [inhibitor, single point]. `COc1ccc2c(c1)c(CC(=O)OCC(=O)N(C)C)c(C)n2C(=O)c1ccc(Cl)cc1` was tested, and the Potency was inconclusive [inhibitor, partial curve, poor fit]. With `FC(F)Oc1ccc(C2N=C(c3ccccc3)NO2)cc1` (stereo not drawn) the Potency was “inactive”. `CC(C)C(=O)N(Cc1ccccc1)S(=O)(=O)c1ccc2c(c1)oc(=O)n2C` was tested, and the Potency was inconclusive [inhibitor, full curve, poor fit]. In the case of `Cc1ccc(S(=O)(=O)Nc2ccc3c(c2)CC(=O)N([C@H](C)CO)C[C@@H](C)[C@H](CN(C)Cc2ccc(-c4ccccc4)cc2)O3)cc1`, the Potency is reported as inconclusive [inhibitor, partial curve, poor fit]. With `CCc1ccc(NC(=O)C2=CC(c3ccc(OC)cc3)=NS(=O)(=O)N2C)cc1` the Potency was inconclusive [inhibitor, single point]. In the case of `CN(CC(=O)Nc1cccc(F)c1)CC(=O)NC(c1ccccc1)c1ccccc1`, the Potency is reported as inconclusive [inhibitor, partial curve, poor fit]. `CCOc1ccc2nc(SC3CC(=O)N(c4ccc(OC)cc4)C3=O)sc2c1` (stereo not drawn) was tested, and the Potency was inconclusive [inhibitor, single point]. With `Cc1ccc(-c2cn3nc(C)c(C)nc3n2)cc1` the Potency was active: 1.41 µM. With `COc1ccc(C=C(C(C)=O)C(C)=O)cc1OC` the Potency was “inactive”. With `Cc1ccc(S(=O)(=O)Oc2ccccc2/C=N/N=C(N)N)cc1` the Potency was inconclusive [inhibitor, partial curve, poor fit]. With `O=C(CSc1nnc(Cc2cccs2)n1CCc1ccccc1)N1CCCc2ccccc21` the Potency was active: 10 µM. In the case of `CC(C)c1ccccc1NC(=O)C1CN(S(=O)(=O)c2ccccc2)CCN1S(=O)(=O)c1ccccc1` (stereo not drawn), the Potency is reported as inconclusive [inhibitor, partial curve, poor fit]. With `CCOc1ccc(Nc2ncnc3c2cnn3Cc2ccccc2)cc1` the Potency was inconclusive [inhibitor, single point]. With `CCOc1ccc(C2=NC(c3ccc(OC)cc3)=Nc3ccc(Cl)cc3N2)cc1` the Potency was “inactive”. In the case of `CC(=O)c1ccc(Nc2nc(NCCO)nc(OC(C(F)(F)F)C(F)(F)F)n2)cc1`, the Potency is reported as inconclusive [inhibitor, partial curve]. With `O=C(Cn1cc(S(=O)(=O)N2CCCC2)c(S(=O)(=O)N2CCCC2)c1)Nc1cccc(F)c1` the Potency was “inactive”. With `COc1ccc(C(=O)Nc2cc(C(F)(F)F)ccc2-n2cnc3ccccc32)cc1` the Potency was inconclusive [inhibitor, single point]. For `CCc1cc(Cn2nc(-c3ccccc3)cc2C(=O)NCc2ccc(C)cc2)on1`, the Potency was inconclusive [inhibitor, single point]. For `CCOc1cc(/C=C2\COc3ccccc3C2=O)cc(Br)c1OCC(=O)N(C)C`, the Potency was inconclusive [inhibitor, partial curve, poor fit]. For `CCOC(=O)C1C(=O)CC(O)(c2ccccc2)CC1c1ccccc1` (stereo not drawn), the Potency was inconclusive [inhibitor, partial curve, poor fit]. With `CCOC(=O)c1c(-c2ccccc2)csc1NC(=O)c1cc(-c2ccc(Br)cc2)on1` the Potency was “inactive”. For `O=C(Nc1cccc(F)c1)Nc1ccc2c(c1)CCC2`, the Potency was “inactive”. In the case of `CCn1nc(C)cc1C(=O)Sc1ccc(C)cc1`, the Potency is reported as inconclusive [inhibitor, partial curve, poor fit]. For `Cc1ccn2c(Nc3ccc4c(c3)OCO4)c(-c3ccc(N(C)C)cc3)nc2c1`, the Potency was inconclusive [inhibitor, single point]. `COc1cccc(NC(=O)C2(C)CCN2C(=O)Cc2cccc3ccccc23)c1` (stereo not drawn) was tested, and the Potency was inconclusive [inhibitor, partial curve]. With `COc1ccc(CNC(=O)c2nc(SC(C)C)ncc2Cl)cc1` the Potency was inconclusive [inhibitor, single point]. With `Cc1cc(NC(=O)Nc2ccc(Cl)cc2)n(-c2ccccc2)n1` the Potency was inconclusive [inhibitor, single point]. For `Cc1cc(N2CCCCC2)nc(N)n1`, the Potency was “inactive”. `Cc1nc(Nc2ccc(Cl)cc2)cc(-c2ccccc2)n1` was tested, and the Potency was inconclusive [inhibitor, single point]. `CC(Oc1ccccc1)C(=O)NC1CCCCCCC1` (stereo not drawn) was tested, and the Potency was inconclusive [inhibitor, partial curve, poor fit]. With `CC1CCN(c2ccc([N+](=O)[O-])cc2C(=O)O)CC1` the Potency was “inactive”. For `Fc1ccc(C2c3cccn3CCN2C(=S)Nc2cccc(Br)c2)cc1` (stereo not drawn), the activity change, negative = inhibition was inactive: 0.871% [at 0.307 µM].
